Sequences with one replicate were seen in a single cluster, so their values are uncertain.
Test system: ATP
Assay: switch fluorescence ratio, 500 uM ATP over buffer (Cy3 cluster intensity, sum of 5 cycles each) (fold (ratio)); higher = stronger signal-on switching upon ATP binding; sequences stand for … in TCGTCGGCAGCGTCAGATGTGTATAAGAGACAGTTTTTTTTTTTTTTTTTTTTTTTTT…TC
Settings: aptamer strand: ATP DNA aptamer (quencher-CACCTGGGGGAGTATTGCGGAGGAAGG + anchor), 100 nM annealed; ATP concentration: 500 uM; one replicate
Outline: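 Values give the fluorescence ratio for each switch-domain sequence, averaged from per-cluster ratios of summed target-cycle to summed buffer-cycle Cy3 intensity. The Cy3-labelled switching-strand clusters sat on a modified Illumina MiSeq flow-cell, were annealed to 100 nM quencher-labelled ATP aptamer, and were imaged in selection buffer, then after 15 min with 500 uM ATP at 22 °C. Five cycles ran with NaOH stripping and re-annealing between them, and clusters outside 100-1000 RFU were excluded.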
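Note: ATP exposure 15 min at 22 °C before imaging.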

Row | Sequence | switch fluorescence ratio
1 | TACCTAACC | 1.34
2 | TCGTAATGGC | 1.07
3 | GGGTTCACGC | 1.03
4 | TGTAGACCGT | 0.969
5 | GAACTGTCAT | 0.971
6 | CAACAAGGAG | 0.992
7 | TTCGATTCAG | 1.01
8 | GCGTTGATTA | 1.01
9 | TGTTGATTCA | 1.02
10 | CTAGTCTGGG | 0.97
11 | TGTTACGCTA | 1.18
12 | CGCGTATATG | 1.04
13 | ATGAGGGCGA | 0.988
14 | CTGCTGAAGA | 1.05
15 | CCTGGCGGCG | 0.983
16 | GAATCGGTAC | 1.07
17 | AAAGAGTTAC | 0.985
18 | CCGGCGGTAG | 1.14
19 | GGCAGGTCTT | 0.989
20 | GAAACCACGC | 1.66
21 | ACCAGGTGAG | 2.71
22 | CAACGACAAG | 1.05

Row | Sequence | switch fluorescence ratio
23 | CCGGGAGATC | 1.05
24 | CCTCTCGATC | 5.53
25 | ATTCCCCTCG | 1.12
26 | TCTTCATTTA | 1.03
27 | CGGGTCCGCC | 0.959
28 | ATTATAATAA | 0.975
29 | GCAGGCGTAT | 1.02
30 | CGGCCTGGGT | 1
31 | AGAGGGCCGT | 1
32 | TTGAAATACC | 1.04
33 | CCGCTCGCCT | 3.86
34 | AGCCGGGAAG | 1.01
35 | AGCTCTTGAC | 1.04
36 | GCGGAATGGC | 1.07
37 | AGCCGAACGC | 1.79
38 | TTGACGGACC | 1.27
39 | AGTTGTAACC | 1.01
40 | ATTTATTAGT | 1.02
41 | AATGGTAGTT | 0.992
42 | TACGATTTAG | 1.04
43 | CTAATAACTA | 1.03
44 | CCTAAGCCGT | 1.02

Row | Sequence | switch fluorescence ratio
45 | GCCTTATGAG | 0.983
46 | CGCTCGTGCC | 1.02
47 | TATATAAGGA | 1.03
48 | TAGGTACGGC | 1.01
49 | GTGAAGACGG | 1.01
50 | TATTATCTCA | 0.989
51 | AAGGGGTT | 1.02
52 | CTGTGACGCC | 1.05
53 | TCCCGATTTT | 0.997
54 | CCGCTGAGGG | 1.41
55 | ATTAACAAGT | 1.05
56 | AACCGGGGGC | 1.08
57 | ATTCATGCTG | 0.92
58 | GTATCAATGC | 2.03
59 | CATGGAGTCG | 0.98
60 | ACTTCAGGGC | 1.07
61 | TCATCAATAG | 1.36
62 | GACGACAATA | 4.79
63 | GCACCCATCC | 1.18
64 | ATTGGAGGAG | 0.971
65 | AGAAGTACAT | 1.05
66 | TATAGATTC | 0.979

Row | Sequence | switch fluorescence ratio
67 | TAAGCGGCTA | 1.04
68 | CGTGGCCATC | 1.07
69 | CGACCGCCCC | 2.78
70 | GTGCTAGGTA | 0.973
71 | GATTTACTTG | 1.05
72 | AGGGTCGGGG | 1.06
73 | TGTTCTCCCC | 1.13
74 | TATATACCGT | 1.06
75 | TCTGGTTAGG | 1.03
76 | GGGTTGAACA | 0.932
77 | AAGTGTAATG | 0.982
78 | GGAATATCGG | 0.957
79 | ACTCTGGGTG | 2.08
80 | TCGGGTAGAC | 1.36
81 | CGTAGGCGTC | 0.981
82 | GTCGCACGAC | 1.02
83 | TATCCTAAGA | 1.07
84 | TTTACCGTTT | 1.09
85 | TCTCTAAGCG | 0.976

From the supplement of paper PMC10126150
